Experimental data taken from PubChem BioAssay AID588579 (National Center for Advancing Translational Sciences (NCATS), 2011).
Out of some 400,000 compounds screened, about 2,200 (0.55%) were called active. The inconclusive results got no clear call from the source; some entries with a clear call stand among them for comparison. Calls follow the shape of the dose curve; as a rule, active = well fitted inhibition curve with a large enough effect; inconclusive = small, poorly fitted or top-dose-only effect, or another doubt; inactive = no such curve, though single readings can be large or run the other way. Where the call is inconclusive, the potency comes from a doubtful curve fit. Some compounds were tested as several samples or in several runs, with calls that do not always agree.

Each compound was assayed against DNA polymerase kappa (Homo sapiens) (UniProt Q9UBT6) (assay: qHTS for Inhibitors of Polymerase Kappa). Conditions: purified Pol kappa, fluorescent DNA synthesis assay, 10 min; series mostly up to 107 µM.
How it was run: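 Fluorescent qHTS in 1536-well format: enzyme (10 nM) and compound sat 15 min at room temperature before 50 nM substrate (final) was added. Signal taken at 0 and 10 min; no-enzyme buffer wells were negative controls.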
Potency is read from the fitted curve at half-maximal effect; tags tell the direction and shape of the fitted curve.

UniProt Q9UBT6, sequence (Q9UBT6 whole entry, looked up): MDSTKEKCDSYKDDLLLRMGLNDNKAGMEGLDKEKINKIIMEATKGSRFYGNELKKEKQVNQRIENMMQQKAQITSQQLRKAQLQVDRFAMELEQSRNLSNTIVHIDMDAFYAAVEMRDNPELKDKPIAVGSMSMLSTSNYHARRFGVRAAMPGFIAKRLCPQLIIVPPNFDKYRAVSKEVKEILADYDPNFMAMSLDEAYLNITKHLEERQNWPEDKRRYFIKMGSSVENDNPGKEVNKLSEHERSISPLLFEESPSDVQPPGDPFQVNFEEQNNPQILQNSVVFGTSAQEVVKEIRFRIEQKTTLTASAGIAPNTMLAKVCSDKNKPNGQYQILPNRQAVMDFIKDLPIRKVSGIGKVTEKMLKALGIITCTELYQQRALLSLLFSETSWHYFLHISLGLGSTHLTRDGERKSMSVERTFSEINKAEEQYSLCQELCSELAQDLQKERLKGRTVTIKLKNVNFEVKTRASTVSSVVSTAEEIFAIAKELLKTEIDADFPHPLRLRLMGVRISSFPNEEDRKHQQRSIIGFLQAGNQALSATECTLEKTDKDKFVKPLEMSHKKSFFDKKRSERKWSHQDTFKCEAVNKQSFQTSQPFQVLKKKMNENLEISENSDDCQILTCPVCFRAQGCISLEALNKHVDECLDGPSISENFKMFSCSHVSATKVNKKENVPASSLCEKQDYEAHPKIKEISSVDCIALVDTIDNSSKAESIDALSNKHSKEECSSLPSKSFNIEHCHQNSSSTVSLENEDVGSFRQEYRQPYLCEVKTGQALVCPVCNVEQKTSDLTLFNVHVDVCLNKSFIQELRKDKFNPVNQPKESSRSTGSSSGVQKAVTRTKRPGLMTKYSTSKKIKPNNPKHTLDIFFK

SMILES	Potency
C#CC(N)CCC(=O)O (stereo unspecified)	inactive
CC1=C/C(=N\OS(=O)(=O)c2ccccc2)C=CC1=O	inconclusive: 89.1 µM [inhibitor, single point]
Cc1cc(C)cc(NC(=O)CCc2nc3sc4c(c3c(=O)[nH]2)CCCC4)c1	inconclusive: 100 µM [inhibitor, single point]
Cc1ccc(-c2nnn3c2nc(N2CCC(C)CC2)c2ccccc23)cc1	inconclusive: 100 µM [inhibitor, single point]
Cc1ccc(NC(=O)c2cc(-c3ccco3)on2)cc1C	inactive
Cc1ccc(C(=O)c2cn(Cc3cccc(F)c3)c3nc(C)ccc3c2=O)cc1	inactive
O=C1c2c(O)cccc2Cc2cccc(O)c21	active: 22.4 µM
Cc1cc(/C=C2\SC(=S)NC2=O)c(C)n1-c1ccccc1	inconclusive: 100 µM [inhibitor, single point]
O=C(Nc1cccc(F)c1)N1CC2(CCN(C(=O)c3ccncc3)CC2)C1	inactive
c1ncc(-c2ccoc2)c(NC2CC2)n1	inconclusive: 28.2 µM [inhibitor, single point]
Cc1ccc(-n2nc3ccc(NC(=O)/C=C/c4ccco4)cc3n2)cc1	inconclusive: 79.4 µM [inhibitor, single point]
CCCCOC(=O)c1ccc(NC(=O)CSc2nc3c(c(=O)[nH]2)CCC3)cc1	inactive
CS(=O)(=O)N1CCCC(C(=O)NCc2cccs2)C1 (stereo unspecified)	inconclusive: 89.1 µM [inhibitor, single point]
C=CCN=C1S/C(=C/c2cccc([N+](=O)[O-])c2)C(=O)N1CC=C	inactive
Cc1c(C(=O)O)cccc1-n1c(C)cc(/C=N/Nc2ccc([N+](=O)[O-])cn2)c1C	active: 79.4 µM
Cc1ccc(S(=O)(=O)Nc2ccc3ccccc3c2[N+](=O)[O-])cc1	inactive
O=C(COC(=O)c1ccc(Br)o1)NCc1ccco1	inconclusive: 89.1 µM [inhibitor, single point]
CC1CN(C(=O)c2cc(S(=O)(=O)N3CCCCC3)ccc2Cl)CC(C)O1 (stereo unspecified)	inactive
CCN(Cc1cccc(S(=O)(=O)O)c1)c1ccc(C(=C2C=CC(=[N+](CC)Cc3cccc(S(=O)(=O)O)c3)C=C2)c2ccc(O)cc2S(=O)(=O)O)cc1	active: 2.82 µM
CCC(C)NC(=O)c1ccc2nc(-c3ccco3)c(-c3ccco3)nc2c1 (stereo unspecified)	inconclusive: 56.2 µM [inhibitor, partial curve, poor fit]
COCCNC(=O)Cn1nc(C)c2c(C)n(-c3ccc(C)cc3)nc2c1=O	inactive
COc1ccc(N(C(=O)c2ccc(OC)c(OC)c2)S(=O)(=O)c2ccc(Cl)cc2)cc1	active: 79.4 µM
Nc1cc2nc3ccccc3oc-2cc1=O	active: 44.7 µM
Cc1ccc2nc(SCC(=O)N/N=C/c3ccc(C(=O)O)cc3)cc(C)c2c1	inconclusive: 79.4 µM [inhibitor, partial curve, poor fit]

SMILES	Potency
COc1ccc(-c2ccc(SCC(=O)Nc3cccc(C(C)=O)c3)nn2)cc1OC	inconclusive: 89.1 µM [inhibitor, partial curve, poor fit]
O=c1c(-c2ccccc2)nc2cncnc2n1Cc1ccccc1Cl	inactive
Cc1ccc(-c2cc(C(=O)NCc3ccco3)c3ccccc3n2)o1	active: 79.4 µM
Cc1ccc2c(=O)cc(C(=O)Nc3nc4ccc(Cl)cc4s3)oc2c1C	inconclusive: 100 µM [inhibitor, single point]
Cc1cc2nc(-c3ccc(SCC(=O)N4CCN(C(=O)c5ccco5)CC4)nc3)[nH]c2cc1C	inconclusive: 89.1 µM [inhibitor, single point]
CC1S/C(=C(\C#N)C(=O)NCc2ccco2)N(Cc2ccco2)C1=O (stereo unspecified)	active: 89.1 µM
CCNc1ccc(Br)cc(C(=O)/C=C/c2ccccc2Cl)c1=O	inconclusive: 39.8 µM [inhibitor, partial curve, poor fit]
Cc1cc(C)cc(NC(=O)C(Cc2ccccc2)NS(=O)(=O)c2ccc3c(c2)c(=O)n(C)c(=O)n3C)c1 (stereo unspecified)	inactive
CN1CCN(c2nc3c(=O)[nH]c(N)nc3n2C2OC(CO)C(O)C2O)CC1 (stereo unspecified)	inactive
O=[N+]([O-])c1cccc(N=Nc2ccc(O)cc2O)c1	inconclusive: 89.1 µM [inhibitor, partial curve, poor fit]
O=C(O)c1cc(-c2ccco2)nn1-c1ccc(Cl)cc1	inconclusive: 11.2 µM [inhibitor, full curve, poor fit]
O=C(CCc1nnc2ccc(NCc3ccco3)nn12)N1CCN(c2ccccc2)CC1	inconclusive: 100 µM [inhibitor, single point]
Cc1noc(-c2ccc(N3CCCCC3)c([N+](=O)[O-])c2)n1	inactive
CC(=O)Nc1ccc2nc3c(=O)[nH]c(=O)[nH]c3nc2c1	active: 28.2 µM
CC(=O)c1cccc(NC(=O)NNC(=O)c2ccc3ccccc3c2)c1	inactive
O=C(/C=C/c1ccccc1Cl)Nc1cccnc1	inconclusive: 100 µM [inhibitor, single point]
CCOC(=O)c1c(NC(=O)CSc2nc3ccccc3o2)sc(C)c1C	inconclusive: 89.1 µM [inhibitor, single point]
Cc1oc2cc3oc(=O)c(CC(=O)NCC(=O)N[C@@H](C(=O)O)c4ccccc4)c(C)c3cc2c1C	inactive
CC(=O)c1ccc(NC(=O)Cc2cccs2)cc1	inconclusive: 79.4 µM [inhibitor, single point]
c1coc(-c2nc3ccccc3nc2-c2ccco2)c1	inconclusive: 50.1 µM [inhibitor, partial curve, poor fit]
COc1cc2c(oc(=O)c3cc(C)cc(OC)c32)c2c(C3OC(C)C(O)C(C)(O)C3O)ccc(O)c12 (stereo unspecified)	active: 39.8 µM
N=C1/C(=C\c2ccc(-c3cccc(Cl)c3)o2)C(=O)N=C2SC=C(c3ccccc3)N12	inconclusive: 79.4 µM [inhibitor, single point]
OCCN1CCN(CC/C=C2/c3ccccc3Sc3ccc(C(F)(F)F)cc32)CC1	inconclusive: 29.9 µM [inhibitor, partial curve, poor fit]
CCOc1cccc(=O)c2c(C)n(C)c(C)c12	inconclusive: 89.1 µM [inhibitor, single point]

SMILES	Potency
COc1cc2ccccc2cc1C(=O)Nc1ccc(Br)cn1	inconclusive: 89.1 µM [inhibitor, single point]
CCOC(=O)C1(C)C=C(Nc2ccc(Br)cc2)C(=O)N1c1ccccc1 (stereo unspecified)	inactive
CCN(CC(=O)Nc1cc(S(=O)(=O)N2CCOCC2)ccc1C)Cc1ccccc1	inactive
CCC(Sc1nc2ccccc2c2nc(CCn3cncc3C)nn12)C(=O)Nc1cccc(OC)c1 (stereo unspecified)	inactive
O=C(O)[C@H]1[C@H]2C[C@H]3c4[nH]c5ccccc5c4CCN3C[C@@H]2CC[C@@H]1O	inconclusive: 1.26 µM [inhibitor, partial curve, poor fit]
COc1cc(C(CCN2CCOCC2)c2c(OC)cc(OC)c3c2OC(=O)CC3c2ccc(N(C)C)cc2)cc(OC)c1OC (stereo unspecified)	inconclusive: 89.1 µM [inhibitor, partial curve, poor fit]
CC(=O)c1c(CC(=O)O)[nH]n(-c2nc3ccccc3s2)c1=O	inconclusive: 89.1 µM [inhibitor, single point]
NC(=O)C(CC(=O)O)NC(=O)[C@@H]1CCCNc2c(I)cc([N+](=O)[O-])cc2C(=O)N[C@@H](CO)C(=O)N[C@@H](Cc2ccc(O)cc2)C(=O)N1 (stereo partly specified)	active: 50.1 µM
S=C(Nc1ccc(Cl)cc1Cl)N1CCCCC1	inconclusive: 89.1 µM [inhibitor, single point]
O=C(O)CNS(=O)(=O)c1ccc2c3c(cccc13)C(=O)N2	inconclusive: 20 µM [inhibitor, full curve, poor fit]
O=C1/C(=C\c2c(NCCOCCO)nc3ccccn3c2=O)SC(=S)N1Cc1ccco1	inconclusive: 89.1 µM [inhibitor, single point]
O=C(Nc1cc(C(=O)N2CCCC2)ccc1N1CCCC1)c1ccccc1F	inactive
Cc1ccc(C)c(N2CCN(S(=O)(=O)c3ccc4c(c3)C(C)(C)C(=O)N4C)CC2)c1	inactive
CC(=O)c1ccc(NC(=O)C(C)OC(=O)/C=C/c2ccco2)cc1 (stereo unspecified)	inconclusive: 89.1 µM [inhibitor, partial curve, poor fit]
Cc1nn(-c2ccccc2)c(C)c1/C=C/C(=O)OCC(=O)Nc1ncc(Cl)cc1Cl	inconclusive: 89.1 µM [inhibitor, single point]
Cc1cc2c(N)cccc2nn1	active: 89.1 µM
Cc1ccc(Cl)cc1N1CCN(S(=O)(=O)c2ccc3[nH]c(=O)c(=O)[nH]c3c2)CC1	inconclusive: 89.1 µM [inhibitor, partial curve]
O=S(=O)(c1ccc(-c2n[nH]c(=S)o2)cc1)N1CCCCC1	inactive
CC1CCc2c(sc(NC(=O)c3ccc(Cn4cc([N+](=O)[O-])cn4)o3)c2C#N)C1 (stereo unspecified)	inconclusive: 79.4 µM [inhibitor, partial curve]
COc1cccc2nc3cc(C)c(C)cc3nc12	inconclusive: 79.4 µM [inhibitor, single point]
Cc1ccc(NC(=O)C2CCN(S(=O)(=O)c3cccc4nonc34)CC2)c(Cl)c1	inactive
CN(c1ccccc1)S(=O)(=O)c1ccc(Cl)c(C(=O)OCC(=O)NCc2ccco2)c1	active: 79.4 µM
COc1ccc2cc(S(=O)(=O)NC3CC(C)(C)NC(C)(C)C3)ccc2c1	inactive
